Article PMC6114900, “Molecular basis for CesT recognition of type III secretion effectors in enteropathogenic Escherichia coli” (PLoS Pathogens, 2018)

Biological target: the molecule itself
Assay: SEC

B1: CesT^138 (purified alone) (domain or fragment)
chain: SSRSELLLDRFAEKIGVGSISFNENRLCSFAIDEIYYISLSDANDEYMMIYGVCGKFPTDNPNFALEILNANLWFAENGGPYLCYESGAQSLLLALRFPLDDATPEKLENEIEVVVKSMENLYLVLHNQGITLENEH
notes: source: E. coli BL21-CodonPlus (DE3), purified (Ni-NTA, SEC)
- stoichiometry N: 2
